Measurements published in the supplement of paper PMC11125491.
± gives the standard deviation of the averaged measurements. Growth of baker's yeast expressing single-residue variants of Pneumocystis jirovecii dihydrofolate reductase in 8.8 or 44 µM methotrexate (about 75% and 90% inhibition of the wild type). Selection coefficient per generation; 0 = like wild type, above 0 = less sensitive, below 0 = more sensitive or loss of function. No active / inactive call per row; the paper calls resistant above 0.220 (8.8 µM) or 0.243 (44 µM) together with a significance test. At 44 µM about 15% of codons end with one read or none, so the lowest values are floors (replicate rank correlation 0.74; 0.94 at 8.8 µM).

B1: UniProt A0EPZ9; numbered along this chain (parent)
chain: MDWQKSLTLIVALTLSRGIGLKNDLPWKLKSDMMFFSRVTSGLLVTRSTGQMNVVLMGRKTWESLPAHSRPLKNRINVVISRQEVLDLGGGAYHARSLDDALALLSQIYDSTSKIQLNRVFVIGGGELCKAAMEHSRLNRIIATVIHNEVDCDVFFPIDFRSSQSCLPWRKQDHSVLEAWVGSKVPQGKINENGFIYEFEMWIRDI

Variants of: B1
Experiment: selection coefficient against synonymous wild-type codons (log2 per generation); higher = faster growth than wild type
Settings: with Saccharomyces cerevisiae carrying the variant on a plasmid
Protocol: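 Pooled growth of yeast carrying single-residue variants of P. jirovecii dihydrofolate reductase (own DFR1 gene intact), two passages at 30 °C, three cultures, sequenced before and after. Codons with under 15 starting reads are left out; codons of one change are averaged.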

K60M
selection coefficient against synonymous wild-type codons (log2) (methotrexate 8.8 µM): -0.181 ± 0.043 | selection coefficient against synonymous wild-type codons (log2) (methotrexate 44 µM): -0.0665 ± 0.055

K60Y
selection coefficient against synonymous wild-type codons (log2) (methotrexate 8.8 µM): -0.311 ± 0.07 | selection coefficient against synonymous wild-type codons (log2) (methotrexate 44 µM): -0.171 ± 0.086

K60E
selection coefficient against synonymous wild-type codons (log2) (methotrexate 8.8 µM): 0.232 ± 0.017 | selection coefficient against synonymous wild-type codons (log2) (methotrexate 44 µM): 0.229 ± 0.02

K60R
selection coefficient against synonymous wild-type codons (log2) (methotrexate 8.8 µM): -0.128 ± 0.064 | selection coefficient against synonymous wild-type codons (log2) (methotrexate 44 µM): -0.0539 ± 0.19

K60V
selection coefficient against synonymous wild-type codons (log2) (methotrexate 8.8 µM): -0.501 ± 0.077 | selection coefficient against synonymous wild-type codons (log2) (methotrexate 44 µM): -0.25 ± 0.12

K60P
selection coefficient against synonymous wild-type codons (log2) (methotrexate 8.8 µM): -0.0242 ± 0.072 | selection coefficient against synonymous wild-type codons (log2) (methotrexate 44 µM): 0.115 ± 0.11

K60G
selection coefficient against synonymous wild-type codons (log2) (methotrexate 8.8 µM): -0.0376 ± 0.041 | selection coefficient against synonymous wild-type codons (log2) (methotrexate 44 µM): 0.0144 ± 0.018

K60N
selection coefficient against synonymous wild-type codons (log2) (methotrexate 8.8 µM): -0.0885 ± 0.041 | selection coefficient against synonymous wild-type codons (log2) (methotrexate 44 µM): -0.172 ± 0.19

K60A
selection coefficient against synonymous wild-type codons (log2) (methotrexate 8.8 µM): -0.0982 ± 0.067 | selection coefficient against synonymous wild-type codons (log2) (methotrexate 44 µM): -0.144 ± 0.17

K60D
selection coefficient against synonymous wild-type codons (log2) (methotrexate 8.8 µM): 0.341 ± 0.031 | selection coefficient against synonymous wild-type codons (log2) (methotrexate 44 µM): 0.467 ± 0.037

K60L
selection coefficient against synonymous wild-type codons (log2) (methotrexate 8.8 µM): -0.363 ± 0.15 | selection coefficient against synonymous wild-type codons (log2) (methotrexate 44 µM): -0.184 ± 0.11

K60I
selection coefficient against synonymous wild-type codons (log2) (methotrexate 8.8 µM): -0.519 ± 0.1 | selection coefficient against synonymous wild-type codons (log2) (methotrexate 44 µM): -0.271 ± 0.043

K60H
selection coefficient against synonymous wild-type codons (log2) (methotrexate 8.8 µM): -0.0536 ± 0.059 | selection coefficient against synonymous wild-type codons (log2) (methotrexate 44 µM): -0.0709 ± 0.17

K60C
selection coefficient against synonymous wild-type codons (log2) (methotrexate 8.8 µM): -0.22 ± 0.047 | selection coefficient against synonymous wild-type codons (log2) (methotrexate 44 µM): -0.209 ± 0.1

K60W
selection coefficient against synonymous wild-type codons (log2) (methotrexate 8.8 µM): -0.309 ± 0.07 | selection coefficient against synonymous wild-type codons (log2) (methotrexate 44 µM): -0.184 ± 0.051

K60F
selection coefficient against synonymous wild-type codons (log2) (methotrexate 8.8 µM): -0.457 ± 0.11 | selection coefficient against synonymous wild-type codons (log2) (methotrexate 44 µM): -0.209 ± 0.077

K60S
selection coefficient against synonymous wild-type codons (log2) (methotrexate 8.8 µM): 0.021 ± 0.084 | selection coefficient against synonymous wild-type codons (log2) (methotrexate 44 µM): -0.0868 ± 0.13

K60T
selection coefficient against synonymous wild-type codons (log2) (methotrexate 8.8 µM): -0.124 ± 0.052 | selection coefficient against synonymous wild-type codons (log2) (methotrexate 44 µM): -0.106 ± 0.12

K60Q
selection coefficient against synonymous wild-type codons (log2) (methotrexate 8.8 µM): -0.0282 ± 0.081 | selection coefficient against synonymous wild-type codons (log2) (methotrexate 44 µM): -0.0757 ± 0.12

G58E
selection coefficient against synonymous wild-type codons (log2) (methotrexate 8.8 µM): -0.533 ± 0.046 | selection coefficient against synonymous wild-type codons (log2) (methotrexate 44 µM): -0.303 ± 0.11

G58Y
selection coefficient against synonymous wild-type codons (log2) (methotrexate 8.8 µM): -0.197 ± 0.16 | selection coefficient against synonymous wild-type codons (log2) (methotrexate 44 µM): -0.185 ± 0.19

G58C
selection coefficient against synonymous wild-type codons (log2) (methotrexate 8.8 µM): -0.228 ± 0.036 | selection coefficient against synonymous wild-type codons (log2) (methotrexate 44 µM): -0.114 ± 0.018

G58T
selection coefficient against synonymous wild-type codons (log2) (methotrexate 8.8 µM): -0.267 ± 0.047 | selection coefficient against synonymous wild-type codons (log2) (methotrexate 44 µM): -0.222 ± 0.13

G58L
selection coefficient against synonymous wild-type codons (log2) (methotrexate 8.8 µM): -0.58 ± 0.12 | selection coefficient against synonymous wild-type codons (log2) (methotrexate 44 µM): -0.313 ± 0.099

G58S
selection coefficient against synonymous wild-type codons (log2) (methotrexate 8.8 µM): -0.282 ± 0.13 | selection coefficient against synonymous wild-type codons (log2) (methotrexate 44 µM): -0.225 ± 0.19

G58V
selection coefficient against synonymous wild-type codons (log2) (methotrexate 8.8 µM): -0.504 ± 0.15 | selection coefficient against synonymous wild-type codons (log2) (methotrexate 44 µM): -0.274 ± 0.11

G58R
selection coefficient against synonymous wild-type codons (log2) (methotrexate 8.8 µM): -0.519 ± 0.083 | selection coefficient against synonymous wild-type codons (log2) (methotrexate 44 µM): -0.271 ± 0.098

G58Q
selection coefficient against synonymous wild-type codons (log2) (methotrexate 8.8 µM): 0.259 ± 0.07 | selection coefficient against synonymous wild-type codons (log2) (methotrexate 44 µM): 0.768 ± 0.054

G58H
selection coefficient against synonymous wild-type codons (log2) (methotrexate 8.8 µM): -0.599 ± 0.013 | selection coefficient against synonymous wild-type codons (log2) (methotrexate 44 µM): -0.309 ± 0.053

G58A
selection coefficient against synonymous wild-type codons (log2) (methotrexate 8.8 µM): 0.322 ± 0.019 | selection coefficient against synonymous wild-type codons (log2) (methotrexate 44 µM): 0.378 ± 0.051

G58M
selection coefficient against synonymous wild-type codons (log2) (methotrexate 8.8 µM): -0.0369 ± 0.11 | selection coefficient against synonymous wild-type codons (log2) (methotrexate 44 µM): 0.0958 ± 0.016

G58W
selection coefficient against synonymous wild-type codons (log2) (methotrexate 8.8 µM): -0.552 ± 0.038 | selection coefficient against synonymous wild-type codons (log2) (methotrexate 44 µM): -0.304 ± 0.038

G58P
selection coefficient against synonymous wild-type codons (log2) (methotrexate 8.8 µM): -0.495 ± 0.12 | selection coefficient against synonymous wild-type codons (log2) (methotrexate 44 µM): -0.302 ± 0.053

G58F
selection coefficient against synonymous wild-type codons (log2) (methotrexate 8.8 µM): -0.599 ± 0.099 | selection coefficient against synonymous wild-type codons (log2) (methotrexate 44 µM): -0.351 ± 0.085

G58K
selection coefficient against synonymous wild-type codons (log2) (methotrexate 8.8 µM): -0.494 ± 0.077 | selection coefficient against synonymous wild-type codons (log2) (methotrexate 44 µM): -0.288 ± 0.03

G58N
selection coefficient against synonymous wild-type codons (log2) (methotrexate 8.8 µM): -0.28 ± 0.13 | selection coefficient against synonymous wild-type codons (log2) (methotrexate 44 µM): 0.0731 ± 0.037

G58I
selection coefficient against synonymous wild-type codons (log2) (methotrexate 8.8 µM): -0.61 ± 0.043 | selection coefficient against synonymous wild-type codons (log2) (methotrexate 44 µM): -0.321 ± 0.085

G58D
selection coefficient against synonymous wild-type codons (log2) (methotrexate 8.8 µM): -0.46 ± 0.11 | selection coefficient against synonymous wild-type codons (log2) (methotrexate 44 µM): -0.268 ± 0.15

T61Q
selection coefficient against synonymous wild-type codons (log2) (methotrexate 8.8 µM): 0.14 ± 0.016 | selection coefficient against synonymous wild-type codons (log2) (methotrexate 44 µM): 0.27 ± 0.034

T61E
selection coefficient against synonymous wild-type codons (log2) (methotrexate 8.8 µM): -0.577 ± 0.084 | selection coefficient against synonymous wild-type codons (log2) (methotrexate 44 µM): -0.287 ± 0.064

T61R
selection coefficient against synonymous wild-type codons (log2) (methotrexate 8.8 µM): -0.506 ± 0.046 | selection coefficient against synonymous wild-type codons (log2) (methotrexate 44 µM): -0.259 ± 0.048

T61L
selection coefficient against synonymous wild-type codons (log2) (methotrexate 8.8 µM): -0.501 ± 0.084 | selection coefficient against synonymous wild-type codons (log2) (methotrexate 44 µM): -0.33 ± 0.088

T61M
selection coefficient against synonymous wild-type codons (log2) (methotrexate 8.8 µM): -0.518 ± 0.071 | selection coefficient against synonymous wild-type codons (log2) (methotrexate 44 µM): -0.244 ± 0.12

T61C
selection coefficient against synonymous wild-type codons (log2) (methotrexate 8.8 µM): 0.0481 ± 0.034 | selection coefficient against synonymous wild-type codons (log2) (methotrexate 44 µM): -0.0443 ± 0.087

T61S
selection coefficient against synonymous wild-type codons (log2) (methotrexate 8.8 µM): 0.0195 ± 0.044 | selection coefficient against synonymous wild-type codons (log2) (methotrexate 44 µM): 0.0402 ± 0.12

T61K
selection coefficient against synonymous wild-type codons (log2) (methotrexate 8.8 µM): -0.515 ± 0.015 | selection coefficient against synonymous wild-type codons (log2) (methotrexate 44 µM): -0.225 ± 0.071

T61W
selection coefficient against synonymous wild-type codons (log2) (methotrexate 8.8 µM): -0.56 ± 0.061 | selection coefficient against synonymous wild-type codons (log2) (methotrexate 44 µM): -0.312 ± 0.068

T61V
selection coefficient against synonymous wild-type codons (log2) (methotrexate 8.8 µM): -0.423 ± 0.12 | selection coefficient against synonymous wild-type codons (log2) (methotrexate 44 µM): -0.326 ± 0.082

T61Y
selection coefficient against synonymous wild-type codons (log2) (methotrexate 8.8 µM): -0.516 ± 0.071 | selection coefficient against synonymous wild-type codons (log2) (methotrexate 44 µM): -0.311 ± 0.0074

T61G
selection coefficient against synonymous wild-type codons (log2) (methotrexate 8.8 µM): -0.431 ± 0.098 | selection coefficient against synonymous wild-type codons (log2) (methotrexate 44 µM): -0.25 ± 0.044

T61I
selection coefficient against synonymous wild-type codons (log2) (methotrexate 8.8 µM): -0.513 ± 0.079 | selection coefficient against synonymous wild-type codons (log2) (methotrexate 44 µM): -0.266 ± 0.085

T61P
selection coefficient against synonymous wild-type codons (log2) (methotrexate 8.8 µM): -0.49 ± 0.072 | selection coefficient against synonymous wild-type codons (log2) (methotrexate 44 µM): -0.23 ± 0.11

T61N
selection coefficient against synonymous wild-type codons (log2) (methotrexate 8.8 µM): -0.0216 ± 0.042 | selection coefficient against synonymous wild-type codons (log2) (methotrexate 44 µM): 0.0281 ± 0.17

T61H
selection coefficient against synonymous wild-type codons (log2) (methotrexate 8.8 µM): -0.605 ± 0.056 | selection coefficient against synonymous wild-type codons (log2) (methotrexate 44 µM): -0.358 ± 0.056

T61D
selection coefficient against synonymous wild-type codons (log2) (methotrexate 8.8 µM): -0.537 ± 0.043 | selection coefficient against synonymous wild-type codons (log2) (methotrexate 44 µM): -0.289 ± 0.015

T61F
selection coefficient against synonymous wild-type codons (log2) (methotrexate 8.8 µM): -0.328 ± 0.34 | selection coefficient against synonymous wild-type codons (log2) (methotrexate 44 µM): -0.069 ± 0.39

T61A
selection coefficient against synonymous wild-type codons (log2) (methotrexate 8.8 µM): -0.288 ± 0.16 | selection coefficient against synonymous wild-type codons (log2) (methotrexate 44 µM): -0.211 ± 0.074
